This is an account of results in the supplement of paper PMC4894684.

The structures appear in SMILES notation. Structures can show the parent of a compound that is named as a salt. ± gives the standard deviation of the averaged measurements. Hit rate of the full screen: of about 1,000 compounds, about 15 (2%) showed an effect of 50% or more. The list shows a part of the results.
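Also: confluent HFF monolayers, run in parallel with the Toxoplasma growth screen as a host toxicity counterscreen.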

The experiment has as its system HFF. As to the kind of experiment: uninfected host cell viability relative to vehicle control; higher = less host cell toxicity. To be noted: 5 µM; 72 h; oxygen 21 %.
As to `COc1ccc2[nH]c(I)c(CCNC(C)=O)c2c1` [2-Iodomelatonin], the “uninfected host cell viability” value was determined as 84.3 ± 3.2%.

In the case of `CN1CCN(C2=Cc3ccccc3Oc3ccc(Cl)cc32)CC1`, the “uninfected host cell viability” value was determined as 82.9 ± 3.7%.

As for `CN1CCc2cccc3c2[C@H]1Cc1ccc(O)c(O)c1-3` [(R)-(-)-Apomorphine hydrochloride], the “uninfected host cell viability” value was 74.5 ± 3.3%.

On to `CC(=O)OCCNC(=O)c1cccnc1` [N-[2-(Acetoxy)ethyl]-3-pyridinecarboxamide], for which the “uninfected host cell viability” value stood at 82.8 ± 3.4%.

With `NCCCCNCCCN` [Spermidine trihydrochloride], the “uninfected host cell viability” value is 95.8 ± 6.5%.

For the molecule `Nc1ncn([C@H]2C[C@H](O)[C@@H](CO)O2)c(=O)n1` [Decitabine], the “uninfected host cell viability” value was found to be 88.1 ± 2.9%.

Regarding `CCOC(=O)[C@]12CC1/C(=N\O)c1ccccc1O2` (stereo partly specified), the “uninfected host cell viability” value came out at 94.3 ± 2.9%.

In the case of `C[N+](C)(C)CCCCCNCC12CC3CC(CC(C3)C1)C2`, the “uninfected host cell viability” value is 83.7 ± 2.8%.

For `COCCOC(=O)C1=C(C)NC(C)=C(C(=O)OC(C)C)C1c1cccc([N+](=O)[O-])c1` (stereo unspecified) [Nimodipine], the “uninfected host cell viability” value is 89 ± 2.9%.

Regarding `CN1C(C(=O)Nc2ccccn2)=C(O)c2ccccc2S1(=O)=O` [Piroxicam], the “uninfected host cell viability” value is 82.4 ± 5.3%.

As to `O=C(CCCN1CCC(O)(c2ccc(Cl)cc2)CC1)c1ccc(F)cc1` [Haloperidol hydrochloride], the “uninfected host cell viability” value was 87.4 ± 3%.

On to `O=c1[nH]c2cc(Cl)ccc2c(O)c1-c1cccc(Oc2ccccc2)c1`, for which the “uninfected host cell viability” value is 86.7 ± 9.3%.

Regarding `O=C(Nc1ccccc1)N[C@@H]1C[C@@H](C(=O)O)Nc2cc(Cl)cc(Cl)c21`, the “uninfected host cell viability” value came to 87.6 ± 1.1%.

As to `CC(C)[C@H](NS(=O)(=O)c1ccc(-c2ccc(Br)cc2)cc1)C(=O)O`, the “uninfected host cell viability” value was 87.2 ± 2.2%.

With `O=C1NC(=O)c2cc(Nc3ccc(F)cc3)c(Nc3ccc(F)cc3)cc21`, the “uninfected host cell viability” value was 86.353 ± 0.013%.

For the molecule `COc1ccc([C@@H]2Sc3ccccc3N(CCN(C)C)C(=O)[C@@H]2OC(C)=O)cc1` [Diltiazem hydrochloride], the “uninfected host cell viability” value came to 99.4 ± 2.1%.

As for `C[C@H](NC[C@H](O)CP(=O)(O)Cc1ccccc1)c1ccc(Cl)c(Cl)c1`, the “uninfected host cell viability” value is 87.23 ± 0.39%.

As to `CC(=N)NCc1cccc(CN)c1` [1400W dihydrochloride], the “uninfected host cell viability” value stood at 93.2 ± 1.7%.

Turning to `NS(=O)(=O)Cc1noc2ccccc12` [Zonisamide], the “uninfected host cell viability” value turned out to be 88.15 ± 0.77%.

As to `COc1cc(N)c(Cl)cc1C(=O)CCC1CCN(CCNS(C)(=O)=O)CC1`, the “uninfected host cell viability” value was found to be 80.8 ± 1.4%.

`Clc1ccc(CCCOCCCN2CCCCC2)cc1`: the “uninfected host cell viability” value was determined as 101 ± 4.2%.

`Oc1nc(-c2ccc(C(F)(F)F)cc2)nc2c1CSCC2`: the “uninfected host cell viability” value is 83.2 ± 2.4%.

Take `Cc1nc2ccc(NC(=O)Nc3ccnc4cccnc34)cc2o1`: the “uninfected host cell viability” value is 78.41 ± 0.58%.

On to `Clc1cccc(Nc2nnc(-c3ccccc3)c3ccccc23)c1`, for which the “uninfected host cell viability” value came to 85.8 ± 0.91%.

In the case of `CC1(C)O[C@@H]2[C@@H](CO[C@@]3(COS(N)(=O)=O)OC(C)(C)O[C@@H]23)O1` [Topiramate], the “uninfected host cell viability” value turned out to be 89 ± 2.8%.

As to `O=C1Nc2ccc(I)cc2/C1=C/c1cc(Br)c(O)c(Br)c1`, the “uninfected host cell viability” value amounted to 88.07 ± 0.46%.
